Measurements reported in PubChem BioAssay AID651820 (National Center for Advancing Translational Sciences (NCATS), 2012).
Hit rate of the full screen: of about 340,000 compounds, about 12,000 (3.5%) were called active. The shares of active, inactive and inconclusive entries below differ from those in the screen. Calls follow the shape of the dose curve; as a rule, active = well fitted inhibition curve with a large enough effect; inconclusive = small, poorly fitted or top-dose-only effect, or another doubt; inactive = no such curve, though single readings can be large or run the other way. No potency is given beside an inconclusive call; the fits are too rough.

Test: qHTS Assay for Inhibitors of Hepatitis C Virus (HCV)
Conditions: Huh7.5.1 HCVcc-Cre (HCVcc is cell-culture hepatitis C virus) infection, luciferase reporter, 44 h; activity change, negative = inhibition: at 41.8 µM (top of the series) unless noted
Method in brief: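 A cell-based infection assay in which seeded cells (1,000 per well) receive test compound after 4 h, are inoculated with HCVcc-Cre at approximately 0.5 moi, and are incubated 44 h before luminescence detection.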
% is scaled to controls: 0 for no effect and ±100 for the full control effect; potency is read from the fitted curve at half-maximal effect; tags tell the direction and shape of the fitted curve.

Question: For FC(F)Oc1ccc(NC(=S)Nc2ccc3cn[nH]c3c2)cc1, which Potency is on record?
Answer: inconclusive [inhibitor, single point]

Question: Which activity change, negative = inhibition does the source give for CCCNC(=S)N1CCC(C(=O)c2ccc(OC)cc2)CC1 here?
Answer: inconclusive: -46% [inhibitor]

Question: Which Potency does the source give for O=C(O)c1ccccc1NC(=O)C1CCCO1 (stereo not given) here?
Answer: inactive

Question: With O=C(Nc1ccn(CCCNCc2ccc3c(c2)OCO3)c(=O)n1)OCc1ccccc1 as the molecule, how does the Potency read?
Answer: active: 10 µM

Question: With Cc1cc(NC(=O)CCC2CCCCC2)no1 as the molecule, how does the Potency read?
Answer: inactive

Question: For COc1cc(C(=O)Nc2nccs2)c(Br)c(OC)c1OC, which Potency is on record?
Answer: inconclusive [inhibitor, single point]

Question: For O=C(CN1CCCN(Cc2ccc(F)cc2Cl)C1=O)NC1CCCCCC1, which Potency is on record?
Answer: inconclusive [inhibitor, single point]

Question: Which Potency does the source give for COc1ccccc1Nc1nnc(SCC(=O)N2CCCC2)s1 here?
Answer: inactive

Question: Which Potency does the source give for Cc1cccc(N2C(=O)NC(=O)/C(=C\C=C\c3ccco3)C2=O)c1 here?
Answer: inconclusive [inhibitor, single point]

Question: For Cc1c(CCC(=O)NCCCn2ccnc2)c(=O)oc2c(C)c3occ(C(C)(C)C)c3cc12, which Potency is on record?
Answer: inconclusive [inhibitor, full curve]

Question: For Cc1c(C(=O)OC(C)C)sc(N)c1C(=O)OC(C)C, which Potency is on record?
Answer: inconclusive [inhibitor, full curve]

Question: Which Potency does the source give for CCOC(CNC(=O)c1ccc2c(c1)ncn2-c1cccc(F)c1)OCC here?
Answer: inactive

Question: With CCOc1ccc(C2=Nc3ccc(Br)cc3C(c3ccc(N4CCOCC4)cc3)=NN2)cc1 as the molecule, how does the Potency read?
Answer: inactive

Question: Which Potency does the source give for CN1C(=O)/C(=C/c2cccc([N+](=O)[O-])c2)C(=O)N1c1ccccc1 here?
Answer: inactive

Question: Which Potency does the source give for N=C(N)SCc1nc2ccccn2c1Br here?
Answer: inconclusive [inhibitor, partial curve]

Question: With O=C(Cc1ccccc1)NCCN1CCCC1 as the molecule, how does the Potency read?
Answer: inactive

Question: With CCOc1ccc(CCNC(=O)CN2C(=O)c3cccnc3Oc3ccc(C)cc32)cc1OCC as the molecule, how does the Potency read?
Answer: inactive

Question: Which Potency does the source give for O=C(COC(=O)CNC(=O)c1ccccc1F)NC1CC1 here?
Answer: inactive

Question: Which Potency does the source give for Cn1c(Cn2c(=O)sc3ccccc32)nnc1SCC(=O)NCCc1ccccc1 here?
Answer: inconclusive [inhibitor, single point]

Question: With Cc1ccc(SCc2nc(N)nc(Nc3ccccc3C)n2)c(C)c1 as the molecule, how does the Potency read?
Answer: inconclusive [inhibitor, single point]

Question: Which Potency does the source give for Cc1ccc(S(=O)(=O)Nc2ccccc2CNC2CCCCC2)cc1 here?
Answer: inactive

Question: Which Potency does the source give for COc1ccc(N(CC(=O)Nc2cccc(N(C)S(C)(=O)=O)c2)S(=O)(=O)c2ccccc2)cc1Cl here?
Answer: inconclusive [inhibitor, single point]

Question: Which Potency does the source give for CCOC(=O)C1(c2ccccc2)CCN(CCC(=O)Nc2cccc(Br)c2)CC1 here?
Answer: active: 11.2 µM

Question: With COC(=O)C1=C(C)OC(N)=C(C#N)C1c1c(C)nn(C)c1C (stereo not given) as the molecule, how does the Potency read?
Answer: inactive

Question: For Cc1nc(NC(=O)c2ccccc2)sc1-c1csc(NCc2ccco2)n1, which Potency is on record?
Answer: inconclusive [inhibitor, partial curve]

Question: With CN(CC(=O)Nc1ccc(F)c(F)c1F)C(=O)c1cc(-c2ccncc2)nc2ccccc12 as the molecule, how does the Potency read?
Answer: inconclusive [inhibitor, partial curve]

Question: Which Potency does the source give for CC(=O)Nc1cccc(C(=O)N2CCN(S(=O)(=O)c3ccc4ccccc4c3)CC2)c1 here?
Answer: inconclusive [inhibitor, single point]

Question: With CCCCCCCCNCCS(=O)(=O)NCCCCCCCC as the molecule, how does the Potency read?
Answer: active: 3.16 µM

Question: With CC(O)(CS(=O)(=O)Cc1ccccc1)c1ccccc1 (stereo not given) as the molecule, how does the Potency read?
Answer: inactive

Question: For Cc1cccnc1NC(=O)CNC(=O)c1sc2ccccc2c1Cl, which Potency is on record?
Answer: inactive

Question: With N/C(=N\OC(=O)c1ccc(Cl)cc1Cl)c1ccccc1 as the molecule, how does the Potency read?
Answer: inconclusive [inhibitor, partial curve]

Question: Which Potency does the source give for CCn1c(C)c(C2=CCN(S(=O)(=O)c3ccc(C)cc3)CC2)c2ccccc21 here?
Answer: inconclusive [inhibitor, partial curve]

Question: Which Potency does the source give for COc1ccccc1CNC(=O)c1cc(-c2ccccc2)nn1CC1CC(c2cccnc2)=NO1 (stereo not given) here?
Answer: inactive

Question: For Cc1ccccc1-n1sc2cc(F)ccc2c1=O, which Potency is on record?
Answer: inconclusive [inhibitor, single point]

Question: Which Potency does the source give for O=C1c2cnc3nc(SCc4cccc(Cl)c4)nn3c2CC2c3ccccc3CCN12 (stereo not given) here?
Answer: active: 11.2 µM

Question: For CC(Sc1ncnc2sc(-c3ccccc3)cc12)C(=O)NCC1CCCO1 (stereo not given), which Potency is on record?
Answer: inconclusive [inhibitor, single point]

Question: Which Potency does the source give for O=S(=O)(Nc1ccc2nc(N3CCOCC3)sc2c1)c1ccccc1 here?
Answer: inconclusive [inhibitor, single point]

Question: Which Potency does the source give for O=C(Nc1nc(-c2ccc(Cl)s2)cs1)c1cccs1 here?
Answer: active: 11.2 µM

Question: With COc1ccc(OC)c(-c2cc(C(=O)Nc3c(C)nn(Cc4ccc(Cl)cc4)c3C)no2)c1 as the molecule, how does the Potency read?
Answer: active: 14.1 µM

Question: For CCCC(=O)Nc1ccc2nc(C)n(Cc3ccccc3Cl)c(=O)c2c1, which Potency is on record?
Answer: inconclusive [inhibitor, single point]

Question: Which Potency does the source give for COc1ccc(NC(=O)CC2Nc3cccc4cccc(c34)NC2=O)cc1 (stereo not given) here?
Answer: inconclusive [inhibitor, single point]

Question: With CCN=C1SCC(=O)N1c1ccc(OC)cc1 as the molecule, how does the Potency read?
Answer: inactive

Question: For O=C(CN1CCCCCCC1)N/N=C/c1ccc([N+](=O)[O-])o1, which Potency is on record?
Answer: inconclusive [inhibitor, single point]

Question: For CCCn1c(Oc2ccccc2)nc2c1c(=O)n(C)c(=O)n2C, which Potency is on record?
Answer: inactive

Question: With CCOC(=O)c1ccccc1N/C=C/C(=O)c1ccccc1 as the molecule, how does the Potency read?
Answer: inconclusive [inhibitor, single point]

Question: For CC1=CC(=O)C2=C(C)CC[C@@H]3[C@H](OC(=O)[C@H]3C)[C@@H]12, which Potency is on record?
Answer: inactive

Question: With O=C(N/N=C/c1ccco1)C1CC1c1ccccc1 (stereo not given) as the molecule, how does the Potency read?
Answer: inconclusive [inhibitor, single point]

Question: For CC(C)c1cc(C(=O)NC2CCCc3c2cnn3-c2ccccc2F)no1 (stereo not given), which Potency is on record?
Answer: active: 11.2 µM

Question: Which Potency does the source give for O=C1C2C3C=CC(C3=C3CCCCC3)C2C(=O)N1c1ccccc1 (stereo not given) here?
Answer: inactive

Question: For CCc1cc(Cl)c(OC)c(C(=O)NC[C@@H]2CCCN2CC)c1O, which Potency is on record?
Answer: active: 5.01 µM

Question: Which Potency does the source give for CCOc1cc(CNCCc2c[nH]c3ccccc23)cc(Cl)c1OC here?
Answer: active: 10 µM

Question: For Cn1ncc2c(NCCc3ccccc3)nc(Cl)nc21, which Potency is on record?
Answer: inconclusive [inhibitor, partial curve]

Question: For CNS(=O)(=O)c1cc(Br)ccc1S(=O)c1ccccc1C(=O)O (stereo not given), which Potency is on record?
Answer: inactive

Question: Which Potency does the source give for CCN1CCN(c2cc(C)c3cc(NC(=O)CCC(=O)N4CCN(c5ccccc5)CC4)ccc3n2)CC1 here?
Answer: inconclusive [inhibitor, partial curve]

Question: Which Potency does the source give for O=C(Nc1ccc(Cl)cc1C(=O)NCC1CCCO1)c1ccc(Cl)cc1Cl (stereo not given) here?
Answer: inconclusive [inhibitor, partial curve]

Question: With COc1ccccc1CNC(=O)C1CCCN(S(=O)(=O)c2ccc3c(c2)C(C)(C)C(=O)N3C)C1 (stereo not given) as the molecule, how does the Potency read?
Answer: inconclusive [inhibitor, single point]

Question: For Cc1cccc(-c2nc3ccc(C(=O)NCCN4CCN(C)CC4)cc3nc2-c2cccc(C)c2)c1, which Potency is on record?
Answer: inconclusive [inhibitor, partial curve]

Question: With COc1cc(OC)cc(-c2cc3cc4c(cc3cn2)OCO4)c1 as the molecule, how does the Potency read?
Answer: inconclusive [inhibitor, partial curve]

Question: Which Potency does the source give for O=C(c1nc[nH]c1C(=O)N1CCc2ccccc2C1)N1CCc2ccccc2C1 here?
Answer: inactive

Question: Which Potency does the source give for CCc1c(C(=O)Nc2ccc(C)c(C)c2)[nH]c(C)c1C(C)=O here?
Answer: inconclusive [inhibitor, full curve, poor fit]

Question: Which Potency does the source give for N#Cc1ccccc1CSc1nc2ccsc2c(=O)n1Cc1ccccn1 here?
Answer: inconclusive [inhibitor, single point]

Question: Which Potency does the source give for Cc1ccc(N(CC(=O)NCCSc2nc3ccccc3s2)S(=O)(=O)c2ccccc2)c(C)c1 here?
Answer: inconclusive [inhibitor, single point]

Question: Which Potency does the source give for Cc1cnc(NC(=O)c2sc(Nc3ccccc3)nc2N)o1 here?
Answer: inconclusive [inhibitor, single point]

Question: Which Potency does the source give for CN(CCc1ccccc1)C(=O)c1cccc(NC(=O)Cc2ccc([N+](=O)[O-])cc2)c1 here?
Answer: inconclusive [inhibitor, partial curve]

Question: Which Potency does the source give for O=C(C1CC(=O)N(c2ccccc2)C1)N1CCCCCC1 (stereo not given) here?
Answer: inactive

Question: For O=C(NCC1CCCO1)c1ccc2c(c1)S(=O)(=O)c1ccccc1C2=O (stereo not given), which Potency is on record?
Answer: inactive

Question: With Cn1cc(C(=O)N/N=C/c2ccc([N+](=O)[O-])cc2)c2ccccc21 as the molecule, how does the Potency read?
Answer: inactive

Question: With O=C(CCn1c(=S)oc2ccccc21)Nc1ccc2c(c1)OCCO2 as the molecule, how does the Potency read?
Answer: inconclusive [inhibitor, partial curve]

Question: Which Potency does the source give for O=[N+]([O-])c1ccc(N/N=C/c2ccc(O)c(O)c2O)c(S(=O)(=O)N2CCOCC2)c1 here?
Answer: inconclusive [inhibitor, single point]

Question: Which Potency does the source give for CC(=O)N(Cc1cccs1)Cc1cc2ccc(C)c(C)c2nc1Cl here?
Answer: inconclusive [inhibitor, single point]

Question: With CCOc1ccc(C(c2c(NC(=O)c3ccccc3)sc(C)c2C)N2CCN(CCO)CC2)cc1 (stereo not given) as the molecule, how does the Potency read?
Answer: inconclusive [inhibitor, partial curve, poor fit]

Question: With Cc1ccsc1/C=N/Nc1ccc(C(=O)O)cc1 as the molecule, how does the Potency read?
Answer: inactive

Question: Which Potency does the source give for c1cncc(Nc2nc(-c3ccncc3)cs2)c1 here?
Answer: inconclusive [inhibitor, single point]

Question: With COc1ccccc1/C=C1\SC(=S)N(CCC(=O)NCCCn2ccnc2)C1=O as the molecule, how does the Potency read?
Answer: inconclusive [inhibitor, partial curve]

Question: With CCN(CC(=O)Nc1ccc(NC(C)=O)cc1)C(=O)/C=C/c1cn(-c2ccccc2)nc1-c1ccc(C)cc1 as the molecule, how does the Potency read?
Answer: inconclusive [inhibitor, single point]
